In PubChem BioAssay AID1347417 (National Center for Advancing Translational Sciences (NCATS), 2020):
Screen size: about 120,000 compounds; about 5,300 (4.4%) were called active. The shares of active, inactive and inconclusive entries below differ from those in the screen. Calls follow the shape of the dose curve; as a rule, active = well fitted inhibition curve with a large enough effect; inconclusive = small, poorly fitted or top-dose-only effect; inactive = no such curve, though single readings can be large or run the other way. A potency beside an inconclusive call is a rough fit, not a confirmed value.

Assay: qHTS Primary assay for Inhibitors of Plasmodium falciparum Dd2 growth in vitro; also: nearly all actives have a fitted effect of over 65% in size;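 as to activity, negative = inhibition: plate controls were DMSO vehicle for no effect and reference drug for full effect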
Settings: P. falciparum Dd2 growth, SYBR Green, 72 h; activity, negative = inhibition: at 28.9 µM (top of the series) unless noted; series mostly up to 28.9 µM
Procedure, shortened: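 Readout: SYBR Green fluorescence, 485 nm excitation, 535 nm emission, after ~16 h lysis at 37C. Before that, Dd2-infected red cells (2.5% hematocrit) grew 72 h with compound, 29 uM top final concentration.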
Potency is read from the fitted curve at half-maximal effect; tags tell the direction and shape of the fitted curve.

Compound	Potency	activity, negative = inhibition
Cc1noc([C@@H]2CN(CC3CCCCC3)C[C@H]2CO)n1	inconclusive: 7.08 µM [inhibitor, partial curve, poor fit]	–
O=C(Cn1ncc2c3ccccc3n(Cc3ccc(Cl)cc3)c2c1=O)NCc1cccs1	–	inconclusive: -43.8% [inhibitor] [at 0.594 µM]
N#Cc1ccc(C(=O)Nc2ccc([C@H]3OCC(=O)N(Cc4ccc(F)cc4)[C@@H]3CO)cc2)cc1	inconclusive: 17.8 µM [inhibitor, single point]	–
COc1ccc(-c2cn3nc(N4CCC(C(=O)Nc5cccc(OC)c5)CC4)sc3n2)cc1	inconclusive: 1.26 µM [inhibitor, single point]	–
O=C(Cc1ccc(N(Cc2ccccc2)C(=O)c2ccco2)cc1)NCCc1ccccc1	inconclusive: 2 µM [inhibitor, single point]	–
COc1cccc(C(=O)NCc2nnc3cc(-c4nc(C)no4)ccn23)c1	inactive	–
Cc1ccccc1CC(=O)N1CCCN(C(=O)C2CC2)c2ccccc21	inconclusive: 4.47 µM [inhibitor, single point]	–
CCCCOc1ccc(C(=O)NCCc2sc(-c3cccc(F)c3)nc2C)cc1	inactive	–
Cc1nc2sc(C(=O)Nc3ccc(F)cc3)c(N)c2c(-c2ccc(Br)cc2)c1C(=O)Nc1ccc(Cl)cc1	inconclusive: 1.41 µM [inhibitor, full curve, poor fit]	–
CC(C)N1CCC(O)(c2csc(CN3CCc4ccccc4C3)n2)CC1	inconclusive: 12.6 µM [inhibitor, partial curve]	–
COc1cc(=O)n2c(c1C(=O)Nc1ccc(N(C)C)cc1)CCCC2	inconclusive: 2 µM [inhibitor, full curve]	–
CCc1nncn1C1CCN(C(=O)c2ccc(OC)cc2)CC1	inactive	–
Cc1ccccc1-n1cc(-c2ccnc(NC3CCN(C)CC3)n2)cn1	inconclusive: 14.1 µM [inhibitor, single point]	–
COc1cc(OC)c(NC(=O)NCc2ccc3c(c2)CCN3C(C)=O)cc1Cl	inactive	–
CNC(=O)NCCc1ncc(C)n1C1CCCCCC1	inconclusive: 11.2 µM [inhibitor, partial curve, poor fit]	–
O=S(=O)(c1ccc2c(c1)CCC2)N1CCCCC1c1nc(CCOCC2CC2)no1 (stereo not given)	inconclusive: 10 µM [inhibitor, partial curve, poor fit]	–
O=c1n(-c2ccc(C(F)(F)F)cc2)nc2n1CCN(CC1CC1)C2	inconclusive: 17.8 µM [inhibitor, partial curve, poor fit]	–
CCOC(=O)c1c(S(=O)(=O)N2CCN(c3ccccc3OC)CC2)c(C)n(C)c1C	inconclusive: 8.91 µM [inhibitor, single point]	–
Cc1cccc(CNC(=O)C2Cn3cccc3C(=O)N2Cc2cccnc2)c1 (stereo not given)	inconclusive: 17.8 µM [inhibitor, single point]	–
CN(Cc1ccc(C2CC(=O)Nc3n[nH]c(C4CCC4)c32)o1)S(C)(=O)=O (stereo not given)	inconclusive: 0.1 µM [inhibitor, full curve]	–
Cc1cccc(CN2CCc3ncc(C(=O)NCc4ccccc4)n3CC2)c1	inconclusive: 31.6 µM [inhibitor, single point]	–
COCC(=O)N1CCCCCC1c1nnc(-c2ccccc2)o1 (stereo not given)	inactive	–

Compound	Potency	activity, negative = inhibition
Cc1ccc(-n2c(=O)c3c(cc(C)n3C)n(CC(=O)Nc3ccc4c(c3)OCO4)c2=O)cc1	inactive	–
CNc1cc(C)nc(N2CCN(Cc3ccc(C)cc3)C(CCO)C2)n1 (stereo not given)	inconclusive: 17.8 µM [inhibitor, single point]	–
COc1ccc(-n2nc(C3CCCN(C(=O)Cc4ccc(F)cc4)C3)[nH]c2=O)cc1 (stereo not given)	inactive	–
Cc1ccc(-c2nnc(Nc3ccc(Br)cc3)c3ccccc23)cc1S(=O)(=O)NCc1nc2ccccc2[nH]1	inconclusive: 17.8 µM [inhibitor, single point]	–
COc1cc2c(cc1OCc1ccccc1)N(C(=O)c1ccc3[nH]ccc3c1)CC21CCN(C)CC1	inactive	–
O=C1NC(=NC2CCCCC2)C2(CCN(CC3CCCCC3)C2)N1c1cc(F)cc(F)c1 (stereo not given)	active: 5.01 µM	–
CC(=O)c1ccc(NC(=O)C2CCC(CNS(=O)(=O)c3cccc4nsnc34)CC2)cc1 (stereo not given)	inconclusive: 11.2 µM [inhibitor, single point]	–
CCC(C)NC(=O)CN1C(=O)C(c2ccccc2)=NC1(C)C (stereo not given)	inactive	–
CCc1ccccc1N1C(=O)N(Cc2cccc(Cl)c2)c2ccccc2S1(=O)=O	inconclusive: 20 µM [inhibitor, single point]	–
CCCNS(=O)(=O)c1cc(-c2nnc3c4ccccc4c(C)nn23)ccc1OC	inconclusive: 11.2 µM [inhibitor, single point]	–
CCOc1ccc(NC(=O)C2CCCN(c3nnc(-n4c(C)ccc4C)s3)C2)cc1 (stereo not given)	inconclusive: 10 µM [inhibitor, single point]	–
O=c1[nH]c(N2CCOCC2)nc2c1CCN(Cc1ccccc1Cl)CC2	inconclusive: 2 µM [inhibitor, single point]	–
COc1ccc(CNC(=O)c2ccc3c(c2)N(C(=O)c2ccc(F)cc2)CC3)cc1OC	inconclusive: 1 µM [inhibitor, partial curve, poor fit]	–
O=C(c1ccc(C(F)(F)F)cc1)N1CCCC2(C1)C(=NC1CCCC1)NC(=O)N2c1cc(F)cc(F)c1 (stereo not given)	inconclusive: 11.2 µM [inhibitor, single point]	–
COc1ccc(OC)c2nc(-c3cccc(C)c3)c(CN3CCCC(O)C3)cc12 (stereo not given)	inconclusive: 12.6 µM [inhibitor, single point]	–
Cc1cnc(C(=O)N2CCCN(Cc3ccncc3)C(c3ccccc3)CC(=O)NCC2)cn1 (stereo not given)	inconclusive: 17.8 µM [inhibitor, single point]	–
COc1ccc(CN2C=C(C(=O)OCc3noc(-c4ccco4)n3)C(C)=NS2(=O)=O)cc1	inconclusive: 17.8 µM [inhibitor, single point]	–
CCc1nc2c(c(-c3ccc(Cl)cc3)n1)CN(C(=O)c1cccc(Cl)c1)CC2	inconclusive: 12.6 µM [inhibitor, single point]	–
COc1ccccc1C(=O)N1CCCn2nc(C)c(-c3ccccc3OCc3ccccc3)c21	inconclusive: 4.47 µM [inhibitor, partial curve, poor fit]	–
CCn1ccnc1C1CCN(c2nc3ccccc3o2)CC1	inconclusive: 14.1 µM [inhibitor, single point]	–
Cc1ccccc1N(C)C1CN(Cc2ccc(C(F)(F)F)cc2)C1	inconclusive: 11.2 µM [inhibitor, single point]	–
COc1ccc(-c2nc3cc(C)ccc3cc2CN2CCN(C)C(CCO)C2)cc1 (stereo not given)	active: 10 µM	–

Compound	Potency	activity, negative = inhibition
COCCNc1cc(N2CCN(C3CCCCC3)CC2)c2noc3c2c1C(=O)c1ccccc1-3	active: 0.891 µM	–
COc1ccc(CNC(=O)C2(c3ccc(NS(C)(=O)=O)cc3)CCCCC2)cc1	inactive	–
COc1cccc(CCC(=O)N2CCN(C(=O)c3nnn4c3COC(c3ccccc3)C4)CC2)c1 (stereo not given)	inactive	–
CCS(=O)(=O)c1ccc2oc([C@H]3CCN(Cc4c[nH]c5ccccc45)C3)nc2c1	inconclusive: 5.62 µM [inhibitor, single point]	–
CCCCCNC(=O)C1CCC(Cn2c(=O)c3sccc3n(CC(=O)N3CCCC3)c2=O)CC1 (stereo not given)	inconclusive: 1.41 µM [inhibitor, full curve]	–
O=C(Nc1ccccc1)N1CCOC(CN(CC2CC2)C(=O)c2cccc(F)c2)C1 (stereo not given)	inactive	–
CC(C)c1nc(CCN(C)C(=O)c2cn(CCC3CCCCN3)nn2)no1 (stereo not given)	inactive	–
NC(=O)c1ccccc1OC[C@@H]1CCCN2CCCC[C@H]12	inactive	–
CSc1ccc(NC(=O)c2cc(-c3ccc[nH]3)n[nH]2)cc1	active: 12.6 µM	–
COc1ccc(CCC(=O)N2CCC3(CC2)C(=O)N(C)c2ccccc23)cc1	inconclusive: 17.8 µM [inhibitor, single point]	–
COc1ccc(C(=O)N2CCN(C(=O)COc3ccc(Br)cc3)CC2)cc1OC	inactive	–
CSCC(=O)N[C@H]1CCN2C(=O)c3cc(-c4ccc(F)cc4F)ccc3NC(=O)[C@H]12	inconclusive: 11.2 µM [inhibitor, single point]	–
O=C(c1ccoc1)N1CC(Oc2ccccc2-c2nc(C3CC3)no2)C1	inconclusive: 7.94 µM [inhibitor, partial curve, poor fit]	–
COCCOc1cc(-c2noc([C@@H]3CCCN3Cc3ccncc3)n2)ccn1	inactive	–
CCCCN(C)CCCNC(=O)Cn1nc(CC)n2c(cc3sc(C)cc32)c1=O	inconclusive: 10 µM [inhibitor, single point]	–
O=C(CN1CCOCC1)N1C[C@@H](COCC2CC2)[C@H](c2ccccn2)C1	inconclusive: 12.6 µM [inhibitor, single point]	–
COc1ccc(F)cc1CN1CCc2[nH]cnc2C1c1cccc(C#N)c1 (stereo not given)	active: 5.62 µM	–
CN(C)c1ccc(C(=O)NCC2CCN(c3cc(-c4ccccc4)[nH]n3)CC2)cc1	inconclusive: 2.51 µM [inhibitor, single point]	–
CCOC(=O)C1(C)C=C(Nc2ccc(C)cc2)C(=O)N1c1ccccc1 (stereo not given)	inconclusive: 17.8 µM [inhibitor, single point]	–
Cc1cccc(OCCc2noc(C3CCCN(Cc4ccccn4)C3)n2)c1 (stereo not given)	inconclusive: 17.8 µM [inhibitor, single point]	–
CCN(CC)CCN(C(=O)c1ccc(C(=O)OC)cc1)c1nc2ccc(Cl)cc2s1	inconclusive: 17.8 µM [inhibitor, single point]	–
